Data published in ChEMBL document CHEMBL1201862, “PubChem BioAssay data set” (2004).

Each compound was assayed on NCI-H322M (assay: DTP human tumour cell line panel, 48 h).
CN(C)CCNC(=O)c1ccc(Cl)c2c(Nc3ccc(S(N)(=O)=O)cc3)c3ccccc3nc12 was tested, and the GI50 was inactive: 1.88 µM.
CCO/C=N\C1=C(C#N)SC2=N/C(=C\c3ccco3)C(=O)N21 was tested, and the GI50 was inactive: > 100 µM.
For COc1c(Br)cc(CC(N)=O)c(O)c1Br, the GI50 was inactive: > 100 µM.
For Cc1ccc(S(=O)(=O)NNC(=O)c2cc(C)ccc2NC(=O)C23CC4CC(CC(C4)C2)C3)cc1, the GI50 was inactive: 26.7 µM.
In the case of OC[C@H]1CC(c2nn[nH]n2)[C@H](O)[C@@H]1O (some centres not stated), the GI50 was inactive: > 100 µM.
Clc1cccc(-c2nc3cccc4c3n2Cc2ncccc2-4)c1 was tested, and the GI50 was inactive: > 100 µM.
In the case of CCN(CC)C(=O)N[C@@H](Cc1ccccc1)C(=O)NC, the GI50 was inactive: > 100 µM.
C[n+]1ccn2c3nc4ccccc4nc3c([O-])c(C#N)c21 was tested, and the GI50 was inactive: > 100 µM.
For CCn1c2ccccc2c2c(-c3ccccc3)cc3c(c21)C(=O)N(c1ccccc1)C3=O, the GI50 was inactive: > 100 µM.
In the case of Clc1ccc(CCn2ccc3ccccc32)c(Cl)c1, the GI50 was inactive: > 100 µM.
With CC1=CCN(c2ccccn2)OC1c1ccccc1 (configuration not stated) the GI50 was inactive: > 100 µM.
In the case of Cc1n[nH]c(=O)n1N1C(=O)CCCC1=O, the GI50 was inactive: > 100 µM.
CCCCCCCCCC1C(C)c2c([nH]c3ccccc23)C2C(=O)N(c3ccccc3)C(=O)C21 (configuration not stated) was tested, and the GI50 was inactive: 15.2 µM.
In the case of CCCCCCCCCCCCCP(=O)(NCC(N)=O)OCC (configuration not stated), the GI50 was inactive: 19 µM.
In the case of CN(CO)c1nc(N(C)CO)nc(N(C)CO)n1 [TRIMELAMOL], the GI50 was inactive: 21.9 µM.
With CCOn1c(C2(CC3CCN(C(=O)c4ccccc4)CC3)OCCO2)cc2ccccc21 the GI50 was inactive: 19.3 µM.
Cc1ccn2c(c1)nc1nc3ccccc3nc12 was tested, and the GI50 was inactive: > 100 µM.
For CC1=NN(c2cccc(Cl)c2)C(=N/c2nc3ccccc3s2)/C1=C\c1ccc(Cl)cc1, the GI50 was inactive: 27.3 µM.
COc1cccc(NC(=O)CC(=O)n2nc(C)c(/N=N/c3ccccc3)c2C)c1 was tested, and the GI50 was inactive: > 100 µM.
With COc1ccc2nc(NC(=O)C(=O)C(C#N)c3ccc(Cl)c(Cl)c3)sc2c1 (configuration not stated) the GI50 was inactive: 42.9 µM.
With Cc1cc(S(=O)(=O)N/C(=N/N)NCCc2ccccc2)c(S)cc1Cl the GI50 was inactive: 24.6 µM.
CC(=N/NC(=S)N1CCCCC1)/C(=N\NC(=S)N1CCCCC1)c1ccccc1 was tested, and the GI50 was inactive: 1.88 µM.
With CCOC(=O)/N=C(\N)SCc1ccccc1 the GI50 was inactive: > 100 µM.
CC(C)C(=O)Nc1cc(C(F)(F)F)ccc1[N+](=O)[O-] was tested, and the GI50 was inactive: > 100 µM.
With COc1ccc(-c2nc3ncccn3c2-c2ccc([S+](C)[O-])cc2)cc1 (configuration not stated) the GI50 was inactive: > 100 µM.
In the case of COc1cc2c(cc1OC)C1(c3ccccc3)CN(C2)Cc2cc(OC)c(OC)cc21, the GI50 was inactive: 50.2 µM.
With C=C1C(=O)OC2C1CC[C@H](C)C1(O)C(O)CC(=O)[C@@]21C (some centres not stated) the GI50 was inactive: 23.9 µM.
In the case of CC(=O)Nc1cccc(/N=N/N(C)C)c1, the GI50 was inactive: > 100 µM.
For CC(C)(C)c1ccc2c(c1)CNCCNCCNCc1cc(C(C)(C)C)ccc1OCC1(CO2)COc2ccc(C(C)(C)C)cc2CNCCNCCNCc2cc(C(C)(C)C)ccc2OC1, the GI50 was active: 0.912 µM.
With CC1=Nc2ccccc2SC(c2c(Cl)cccc2Cl)C1 (configuration not stated) the GI50 was inactive: 1.85 µM.
With O=C(NNC(=S)NC1CCCCC1)c1csc(NC(=S)NC2CCCCC2)n1 the GI50 was inactive: 7.59 µM.
Cn1c2c3ccccc3nc-2c(O)c2ccccc21 [HYDROXYCRYPTOLEPINE] was tested, and the GI50 was inactive: 84.7 µM.
For Cc1ccc(NC(=O)CSc2nc(C)nc3c2sc(=S)n3-c2ccccc2)cc1, the GI50 was inactive: > 10 µM.
In the case of CCCC1C(C#N)(C#N)C(C#N)=C(N)C1(C)C(C)=O (configuration not stated), the GI50 was inactive: > 100 µM.
For COc1ccc2[nH]c3c(c2c1)[C@H]1CCC(C(C)(C)C)C[C@H]1[C@H]1C(=O)N(c2ccccc2)C(=O)[C@@H]31 (some centres not stated), the GI50 was inactive: 45.5 µM.
For CCOC(C)OCC#CCCBr (configuration not stated), the GI50 was inactive: > 100 µM.
In the case of CC(C)C(N)=O [ISOBUTYRAMIDE], the GI50 was inactive: > 5000 µM.
For O=C1c2c(Br)sc(Br)c2C(NC(=O)C(F)(F)F)C1O (configuration not stated), the GI50 was inactive: 20.6 µM.
In the case of CN(C)c1ccc(/C=C(\C#N)C(N)=C(C#N)C#N)cc1, the GI50 was inactive: > 100 µM.
COc1ccc(C)cc1-c1cc(Sc2ccccc2)c(-c2cc(C)ccc2OC)o1 was tested, and the GI50 was inactive: > 31.6 µM.
In the case of C/C(=C\c1ccc(Cl)c(Cl)c1)[N+](=O)[O-], the GI50 was inactive: 14.9 µM.
With CC(=O)OCC12CN(C#N)C3C4COC(CC41)C1(C(=O)N(C)c4ccccc41)C32 (configuration not stated) the GI50 was inactive: 34.4 µM.
With CC(=O)Nc1ccc(S(=O)(=O)N/N=C/CN2C(=O)c3ccccc3C2=O)cc1 the GI50 was inactive: > 100 µM.
For CCCCCCc1cc2cc(C(=O)Nc3cccc(C(F)(F)F)c3)c(=N)oc2cc1O, the GI50 was inactive: 2.66 µM.
CC1=C2C(=CC(C)(C)C2O)C(=O)C(C)(O)C12CC2 (configuration not stated) was tested, and the GI50 was active: 0.0395 µM.
In the case of O=[N+]([O-])c1cc(Cl)ccc1S(=O)(=O)c1ccc(Cl)cc1[N+](=O)[O-], the GI50 was inactive: 16.3 µM.
In the case of O=c1[nH]nc2ccccc2c1Cl, the GI50 was inactive: 12.3 µM.

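Dose response: 5 concentrations. Exposure: 48 h. Format: 96-well plates. Endpoint: linear interpolation; highest concentration if not reached. Here, GI50 denotes the concentration required for 50% inhibition of growth.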 Activity calls are given as the source filed them. No stated cut-off is given here; in the data, active = GI50 up to about 1.1 µM and inactive = higher.
